In PubChem BioAssay AID504332 (National Center for Advancing Translational Sciences (NCATS), 2011):
About 31,000 (8.9%) of roughly 350,000 compounds were called active. Inconclusive means that the source gave no clear call. Such entries were picked first, then a sample of the others. Calls come from the whole dose curve; as a rule, active = well fitted inhibition curve with a large enough effect; inconclusive = small, poorly fitted or top-dose-only effect; inactive = no such curve, though single readings can be large or run the other way. Potencies beside an inconclusive call are fits to weak or partial responses and may not hold up.

target: Histone-lysine N-methyltransferase EHMT2 (Homo sapiens) (UniProt Q96KQ7); assay: qHTS Assay for Inhibitors of Histone Lysine Methyltransferase G9a; details: G9a H3K9 monomethylation, AlphaScreen, 2 h; activity, negative = inhibition: at 59 µM (top of the series) unless noted; note: nearly all actives have a fitted effect of over 75% in size
Procedure, shortened: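 AlphaScreen read-out: biotin-H3K9 peptide (500 nM) methylation by 20 nM enzyme with 20 uM SAM, 2 h at room temperature after 15 min compound preincubation; anti-monomethyl H3K9 antibody plus donor/acceptor beads, 10 min dark.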
% is set by controls: 0 for no effect and ±100 for the full control effect; potency is the fitted concentration of half-maximal effect; tags give direction and shape of the fitted curve.

Sequence of UniProt Q96KQ7 (Q96KQ7 whole entry, looked up): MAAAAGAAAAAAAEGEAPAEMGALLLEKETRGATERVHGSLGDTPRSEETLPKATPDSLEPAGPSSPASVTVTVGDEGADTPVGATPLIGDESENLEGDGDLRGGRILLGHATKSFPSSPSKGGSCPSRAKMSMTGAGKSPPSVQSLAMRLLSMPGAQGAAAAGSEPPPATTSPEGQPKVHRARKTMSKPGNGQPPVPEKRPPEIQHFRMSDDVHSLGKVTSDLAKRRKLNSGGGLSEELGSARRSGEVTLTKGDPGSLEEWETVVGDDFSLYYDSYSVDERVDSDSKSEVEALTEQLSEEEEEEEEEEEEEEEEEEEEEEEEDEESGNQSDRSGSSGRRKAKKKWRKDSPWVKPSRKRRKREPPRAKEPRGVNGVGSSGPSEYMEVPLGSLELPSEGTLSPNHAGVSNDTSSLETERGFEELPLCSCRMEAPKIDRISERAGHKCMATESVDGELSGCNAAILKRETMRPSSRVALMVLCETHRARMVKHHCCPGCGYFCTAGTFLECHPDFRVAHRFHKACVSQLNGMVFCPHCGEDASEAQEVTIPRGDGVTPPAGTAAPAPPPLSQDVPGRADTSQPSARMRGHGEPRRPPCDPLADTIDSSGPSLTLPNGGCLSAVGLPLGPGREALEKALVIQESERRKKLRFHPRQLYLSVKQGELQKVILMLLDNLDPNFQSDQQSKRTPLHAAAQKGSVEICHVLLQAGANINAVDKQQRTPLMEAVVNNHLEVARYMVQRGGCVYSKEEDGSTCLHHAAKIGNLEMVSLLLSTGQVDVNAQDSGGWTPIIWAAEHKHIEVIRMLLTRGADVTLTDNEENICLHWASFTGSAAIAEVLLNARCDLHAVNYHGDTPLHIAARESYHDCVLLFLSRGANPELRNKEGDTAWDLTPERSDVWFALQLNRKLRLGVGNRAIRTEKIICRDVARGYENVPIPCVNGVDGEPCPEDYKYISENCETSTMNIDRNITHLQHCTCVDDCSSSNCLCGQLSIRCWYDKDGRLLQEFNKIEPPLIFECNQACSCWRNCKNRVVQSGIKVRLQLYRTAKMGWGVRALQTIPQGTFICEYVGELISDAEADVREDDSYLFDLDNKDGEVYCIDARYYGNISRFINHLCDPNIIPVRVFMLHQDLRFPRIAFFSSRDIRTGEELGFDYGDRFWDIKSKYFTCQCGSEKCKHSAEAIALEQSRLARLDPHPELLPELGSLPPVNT

Compound | Potency | activity, negative = inhibition
CCOC(=O)CSc1ncc(OC)c(Sc2ccc(OC)cc2)n1 | inactive | –
O=C(O)CC(c1cccc2ccccc12)N1Cc2ccccc2C1=O (stereo unspecified) | inconclusive: 44.7 µM [inhibitor, partial curve, poor fit] | –
CCC(CC)c1nnc(NC(=O)c2ccc([N+](=O)[O-])cc2)s1 | inconclusive: 17.8 µM [inhibitor, single point] | –
CCOC(=O)c1c(N)sc2c1CCS(=O)(=O)C2 | active: 8.91 µM | –
COC(=O)c1nnn(-c2ccccc2)c1N | inconclusive: 8.91 µM [inhibitor, single point] | –
CCC(=O)N1CCc2cc(Br)cc(S(=O)(=O)N3CCCC(C(=O)Nc4cccc(Cl)c4C)C3)c21 (stereo unspecified) | inactive | –
Cc1ccc(NC(=S)NC(=O)c2sc3ccccc3c2Cl)c(C(=O)O)c1 | active: 44.7 µM | –
CN(Cc1ccc(Cl)c(Cl)c1)C(=O)c1ccccc1SCC(=O)N1CCCC1 | inconclusive: 89.1 µM [inhibitor, partial curve, poor fit] | –
COc1ccccc1N1CCN(CCC(=O)Nc2cccc(Cl)c2)CC1 | inconclusive: 79.4 µM [inhibitor, single point] | –
CC(C)CCn1c(SCC(=O)c2ccccc2)nc2c1c(=O)[nH]c(=O)n2C | inconclusive: 28.2 µM [inhibitor, single point] | –
Cc1ccccc1-c1nc(CS(=O)(=O)CC(=O)N2CCN(c3ccccc3)CC2)c(C)o1 | inconclusive: 25.1 µM [inhibitor, partial curve, poor fit] | –
Cc1nnc(SCC(=O)Nc2nc(-c3ccc(F)cc3)cs2)[nH]c1=O | inactive | –
CC(=O)OC(C)C(=O)NS(=O)(=O)c1ccc(C)cc1 (stereo unspecified) | inconclusive: 44.7 µM [inhibitor, partial curve, poor fit] | –
CCn1c(CC(=O)Nc2ccc(C)cc2)n[nH]c1=S | active: 5.01 µM | –
CC(C)(C)c1ccc2c(c1)OC(C(=O)N/N=C\c1ccncc1)CO2 (stereo unspecified) | inactive | –
Nc1cc(OCC(F)(F)F)cc([N+](=O)[O-])c1 | inactive | –
Cc1c2c([n+]3n1CCC3)CC(C)(C)CC2=O | inconclusive: 100 µM [inhibitor, single point] | –
CCCCNC(=O)CSc1nc2nc(C)c(Cc3ccccc3C)c(C)n2n1 | inactive | –
Cc1ccc(C2=C(c3ccc([N+](=O)[O-])cc3)C(=O)OC2)cc1C | inconclusive: 44.7 µM [inhibitor, partial curve] | –
CN(C)c1nc(N)nc(/C(C#N)=C/C2CC3C=CC2C3)n1 (stereo unspecified) | – | inconclusive: -98.2% [inhibitor]
O=C(O)CCCN=CC1=C(O)CNC1=O | inconclusive: 56.2 µM [inhibitor, partial curve] | –
CCOc1ccc(CCNC(=O)Cn2nnc(-c3ccccc3)n2)cc1OCC | inactive | –
COc1ccc(CNC(=O)C2CCCN(C(=O)Nc3ccc(OC)cc3)C2)cc1 (stereo unspecified) | inactive | –
O=C(Nc1ncccc1O)c1ccc2c(c1)OCCO2 | active: 50.1 µM | –
COc1ccc(C[C@@H]2CN3C(=NC[C@@H]3C)N2C[C@H](C)NC(=O)CCC2CCCCC2)cc1 | – | inconclusive: -56.1% [inhibitor]
CC(=O)Nc1nnc(Cc2c[nH]c3ccccc23)s1 | inactive | –

Compound | Potency | activity, negative = inhibition
CCC1CCc2nc3sc(C(=O)Nc4ccc(F)cc4F)c(N)c3cc2C1 (stereo unspecified) | inactive | –
CCOC(=O)c1cc(C)n(CC2CCC(C(=O)Nc3ccc(Cl)cc3)CC2)c1C (stereo unspecified) | inconclusive: 5.01 µM [inhibitor, full curve, poor fit] | –
Cc1noc(C)c1COc1ccc(C(=O)OCC(=O)Nc2ccc(C(=O)N(C)C)cc2)cc1 | inconclusive: 79.4 µM [inhibitor, partial curve, poor fit] | –
COc1ccc(C(=O)N2CC(=O)Nc3ccc(F)cc3C2c2ccc(F)cc2)c(OC)c1 (stereo unspecified) | inactive | –
COc1ccc(/C=C2\SC(=O)N(CCC(=O)NCCCn3ccnc3)C2=O)cc1 | inactive | –
Cc1ccc(-c2csc(NC(=O)c3ccc(C)o3)n2)cc1 | inconclusive: 100 µM [inhibitor, single point] | –
CCOC(=O)c1cc(-c2ccc(C)cc2)n(CCC(=O)N2CCN(c3ccccn3)CC2)c1C | active: 28.2 µM | –
CCOC(=O)/C(=N\Nc1ccccc1Cl)N1CCN(Cc2ccccc2)CC1 | inactive | –
Cc1cc(CN2CCCC(N3CCc4ccccc4C3)C2)cc(C)c1O (stereo unspecified) | inconclusive: 79.4 µM [inhibitor, single point] | –
CCCSc1nnc(NC(=O)CSc2sc3c(O)cc(=O)[nH]c3c2C#N)s1 | active: 11.2 µM | –
O=C(Nc1cnn(Cc2c(Cl)cccc2Cl)c1)C(c1ccccc1)c1ccccc1 | inconclusive: 89.1 µM [inhibitor, single point] | –
CCOc1ccc(CCNC(=O)CS(=O)Cc2nc(-c3ccc(C)cc3)oc2C)cc1 (stereo unspecified) | inconclusive: 79.4 µM [inhibitor, single point] | –
Cc1nc([N+](=O)[O-])c(C(=O)OCc2ccc(C#N)cc2)n1C | inconclusive: 70.8 µM [inhibitor, partial curve, poor fit] | –
CC(C)n1c(=O)[nH]c2ccccc21 | inactive | –
Cc1ccc(C(=O)NCCc2ccc(S(N)(=O)=O)cc2)o1 | inactive | –
C/C(=C\c1ccco1)C1C(C#N)=C(N)Oc2n[nH]c(-c3ccccc3)c21 (stereo unspecified) | – | inconclusive: -78.2% [inhibitor]
O=C(CCNS(=O)(=O)c1cccc2nonc12)NCc1cccs1 | – | inactive: 5.27% [at 2.33 µM]
CCC(=O)N1CN(S(=O)(=O)c2ccc(C)cc2)CC1C (stereo unspecified) | inconclusive: 89.1 µM [inhibitor, partial curve, poor fit] | –
O=C(/C=C(/c1ccc(Cl)cc1)n1cncn1)c1ccccc1 | inconclusive: 79.4 µM [inhibitor, single point] | –
N/C(=N\OC(=O)Cc1cccs1)c1ccccc1 | inactive | –
COc1ccc(NC(=O)CSc2n[nH]c(CNc3cccc(C)c3)n2)cc1 | inconclusive: 20 µM [inhibitor, full curve] | –
CCn1c(-c2cc(OC)ccc2OC)csc1=Nc1c(C)n(C)n(-c2ccccc2)c1=O | inconclusive: 35.5 µM [inhibitor, single point] | –
Cc1cc2nc(-c3cc(NC(=O)c4cc5ccccc5o4)ccc3Cl)oc2cc1C | inactive | –
CCN(CC)c1ccc(NC(=O)COC(=O)c2cccs2)cc1 | active: 1.26 µM | –
COC(CNC(=O)c1ccc(N2CCc3ccccc32)c([N+](=O)[O-])c1)OC | active: 44.7 µM | –
O=C(COC(=O)c1ccc2ncsc2c1)NCc1ccc(F)cc1 | inconclusive: 12.6 µM [inhibitor, single point] | –

Compound | Potency | activity, negative = inhibition
CCOC(=O)/C(C#N)=C/c1c(Oc2cccc(C)c2)nc2c(C)cccn2c1=O | inactive | –
COc1ccc(CCNC(=O)CSc2nncs2)cc1 | inconclusive: 11.2 µM [inhibitor, partial curve] | –
CC(C)N(Cc1ccccc1)C(=O)CCS(=O)(=O)c1cc2c(cc1Cl)NC(=O)CO2 | inactive | –
CCC(NC(=O)Nc1cc(C)on1)(C(F)(F)F)C(F)(F)F | inactive | –
Cc1ccc2nc(-c3ccc(O)cc3)c(Nc3ccc4c(c3)OCO4)n2c1 | active: 3.55 µM | –
COc1nc(N(C)S(=O)(=O)c2ccc(C)cc2)nc(C)c1Br | – | inactive: 13% [at 0.501 µM]
Cc1ccc(CN(Cc2ccccn2)C(=O)Nc2c(F)cccc2F)cc1 | inconclusive: 0.355 µM [inhibitor, partial curve, poor fit] | –
C=CCOc1ccc(C2/C(=C(\O)c3ccc4c(c3)CC(C)O4)C(=O)C(=O)N2CCN2CCOCC2)cc1OCC (stereo unspecified) | active: 20 µM | –
N#Cc1c(NC(=O)c2cc3nc(-c4ccc(Br)cc4)cc(C(F)(F)F)n3n2)sc2c1CCCC2 | active: 10 µM | –
O=C(COC(=O)C1CC1)Nc1ccc(N=Nc2ccccc2)cc1 | inactive | –
O=C(c1noc2c1CCCC2)N1CCCC(N2CCN(c3ccccc3F)CC2)C1 (stereo unspecified) | inactive | –
COc1ccc(N(CC(=O)NCCc2cccc(C)c2)S(=O)(=O)c2c(C)nn(C)c2C)cc1 | inactive | –
O=C(O)c1cc([N+](=O)[O-])cc2c1nnn2O | inconclusive: 44.7 µM [inhibitor, partial curve, poor fit] | –
CC(C)Cn1c(SCC(=O)c2ccc(Cl)s2)nnc1-c1ccco1 | inconclusive: 15.8 µM [inhibitor, partial curve, poor fit] | –
Cc1ccc(NS(=O)(=O)c2cc(OCC(N)=O)c(C)cc2Cl)cc1C | inactive | –
CCN(CC)S(=O)(=O)c1cc(NC(=O)C2CSC3(C)CCC(=O)N23)ccc1C (stereo unspecified) | – | inactive: 7.11% [at 12.7 µM]
Oc1ccc(N2CCN(CC(O)c3ccccc3)CC2)cc1 (stereo unspecified) | active: 8.91 µM | –
O=C(O)C1CSC(c2ccc3c(c2)OCO3)N1 (stereo unspecified) | active: 7.08 µM | –
Cc1ccc(NC(=O)CSc2nccn(-c3ccc4c(c3)OCCO4)c2=O)cc1 | inconclusive: 35.5 µM [inhibitor, partial curve, poor fit] | –
COCc1cc(C)nc2sc3c(c12)NC(c1ccc(O)cc1)N(c1ccc(OC)cc1)C3=O (stereo unspecified) | inactive | –
O=C1CSc2nc3ccccc3n21 | – | inconclusive: -51.5% [inhibitor]
CCOc1ccc(NC(=O)C2Cc3ccccc3N2C(=O)c2ccccc2)cc1 (stereo unspecified) | inconclusive: 39.8 µM [inhibitor, single point] | –
CCN(c1ccccc1)S(=O)(=O)c1ccc(OC)c(NC(=O)COc2ccc(C(C)=O)cc2)c1 | active: 56.2 µM | –
CCNc1ncc2nc(-c3cc(F)cc(F)c3)c(=O)n(CCOC)c2n1 | – | inactive: 2.32% [at 0.501 µM]
